Data as given in paper PMC2841195.
These are yes or no findings as the source states them, for the method shown.

Chains of the proteins cited; added tags and fusions are not shown. Residues count along the entry.
MOR second intracellular loop (IL2, residues 166-187), GAL4 DNA-binding domain fusion (P35372, residues 166-187): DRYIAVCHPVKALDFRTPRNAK
MOR third intracellular loop (IL3, residues 260-282), GAL4 DNA-binding domain fusion (P35372, residues 260-282): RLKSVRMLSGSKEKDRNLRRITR
MOR C-terminal domain (C-tail, residues 342-400), GAL4 DNA-binding domain fusion (P35372, residues 342-400): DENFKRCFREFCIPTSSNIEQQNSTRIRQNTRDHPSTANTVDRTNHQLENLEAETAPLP
UniProt Q9ULU8: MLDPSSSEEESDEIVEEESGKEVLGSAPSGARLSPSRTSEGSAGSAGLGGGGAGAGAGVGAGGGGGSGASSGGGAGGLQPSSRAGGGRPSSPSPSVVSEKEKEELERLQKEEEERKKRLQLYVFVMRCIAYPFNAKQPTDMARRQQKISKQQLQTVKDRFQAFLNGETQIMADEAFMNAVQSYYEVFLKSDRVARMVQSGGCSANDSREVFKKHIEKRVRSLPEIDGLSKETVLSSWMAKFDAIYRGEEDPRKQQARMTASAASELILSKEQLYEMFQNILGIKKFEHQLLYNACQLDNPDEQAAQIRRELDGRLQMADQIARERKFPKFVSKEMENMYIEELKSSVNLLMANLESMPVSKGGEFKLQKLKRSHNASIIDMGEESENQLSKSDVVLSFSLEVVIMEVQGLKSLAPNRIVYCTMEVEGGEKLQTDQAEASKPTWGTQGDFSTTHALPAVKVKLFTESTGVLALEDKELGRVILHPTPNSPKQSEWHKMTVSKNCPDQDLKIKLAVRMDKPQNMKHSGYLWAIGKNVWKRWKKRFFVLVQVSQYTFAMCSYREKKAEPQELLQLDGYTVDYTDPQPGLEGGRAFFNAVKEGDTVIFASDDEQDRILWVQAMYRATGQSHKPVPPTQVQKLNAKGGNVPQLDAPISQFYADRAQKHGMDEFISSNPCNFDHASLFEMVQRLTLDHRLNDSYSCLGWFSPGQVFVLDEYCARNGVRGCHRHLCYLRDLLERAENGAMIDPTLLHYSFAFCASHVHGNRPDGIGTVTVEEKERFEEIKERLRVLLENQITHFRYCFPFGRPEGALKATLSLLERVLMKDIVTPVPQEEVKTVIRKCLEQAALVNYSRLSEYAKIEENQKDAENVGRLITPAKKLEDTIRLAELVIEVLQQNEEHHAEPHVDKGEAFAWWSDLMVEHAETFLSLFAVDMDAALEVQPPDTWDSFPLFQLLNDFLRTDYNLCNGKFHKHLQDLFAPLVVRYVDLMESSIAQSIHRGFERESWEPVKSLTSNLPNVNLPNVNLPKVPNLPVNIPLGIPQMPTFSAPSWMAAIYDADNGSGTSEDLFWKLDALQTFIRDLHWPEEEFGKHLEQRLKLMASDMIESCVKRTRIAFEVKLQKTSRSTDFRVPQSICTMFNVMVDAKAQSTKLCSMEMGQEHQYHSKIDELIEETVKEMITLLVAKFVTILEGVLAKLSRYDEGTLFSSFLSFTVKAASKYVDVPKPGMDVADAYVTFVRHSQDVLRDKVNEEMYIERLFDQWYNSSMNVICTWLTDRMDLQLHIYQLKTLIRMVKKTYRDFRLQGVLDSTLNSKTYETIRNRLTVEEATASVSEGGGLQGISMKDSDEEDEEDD

Legend:
Assay in all cases: two-hybrid; directed conventional Y2H; MOR intracellular domains in GAL4 DNA-binding domain vector pAS2-1, GPR177-CT in GAL4 activation domain vector pACT2, S. cerevisiae MAV103, beta-galactosidase filter lift
[1] = biological target: MOR C-terminal domain (C-tail, residues 342-400), GAL4 DNA-binding domain fusion (human) (UniProt P35372)
[2] = biological target: MOR first intracellular loop (IL1, residues 97-103), GAL4 DNA-binding domain fusion (human) (UniProt P35372)
[3] = biological target: MOR third intracellular loop (IL3, residues 260-282), GAL4 DNA-binding domain fusion (human) (UniProt P35372)
[4] = biological target: MOR second intracellular loop (IL2, residues 166-187), GAL4 DNA-binding domain fusion (human) (UniProt P35372)

Measured: binding

Calcium-dependent activator protein for secretion (CAPS), full-length (from UniProt Q9ULU8 1-1353)
no binding: all assays above
